From the supplement of paper PMC4723716
± gives the uncertainty stated by the source. In all, about 9,900 compounds were measured (“viability index relative to DMSO control”: median about 1, lowest 2% from about 0.85 on). Some of the results follow.

Test system: Plasmodium falciparum NF54 stage V gametocytes
Test: viability index relative to DMSO control (fraction); higher = less gametocyte killing
Conditions: 2.5 µM, incubation time: 72 h
Summary of the method: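 P. falciparum NF54 stage V gametocytes in serum-free screening medium (0.75% gametocytemia, 1.25% hematocrit, 10 µl) were incubated with compound at 2.5 µM in 1,536-well plates for 72 hr at 37°C under low oxygen. Then 3 µl of 2.5 µM MitoTracker Red CMXRos plus 0.13% saponin was added for one to two hours. One field per well was imaged, 20–70 µm2 red particles were counted, and the viability index was the count divided by the plate mean of DMSO wells.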

[1] = library set: Broad Institute DOS
[2] = library set: Broad Institute Blood Stage

SMILES	viability index [1]	viability index [2]
O=C(Cc1ccccn1)N1[C@@H](CO)[C@@H]2c3ccccc3NC[C@@H]21	0.972 ± 0.082	–
CCCC(=O)N1CC[C@@]2(CC1)CN(Cc1ccc(Cl)cc1)[C@@H](CO)c1[nH]c3cc(OC)ccc3c21	0.795 ± 0.039	–
C[C@@H]1CCCCO[C@@H](CN(C)C(=O)c2ccncc2)[C@H](C)CN([C@H](C)CO)C(=O)c2cc(NS(=O)(=O)c3cccs3)ccc2O1	1.08 ± 0.098	–
CO[C@H]1CN(C)C(=O)c2ccc(NC(C)=O)cc2OC[C@H](C)N(C(=O)c2cnccn2)C[C@@H]1C	1.13 ± 0.071	–
C[C@@H]1CN([C@@H](C)CO)C(=O)c2cc(C3=CCCCC3)cnc2O[C@@H]1CN(C)S(=O)(=O)c1cn(C)cn1	0.995 ± 0.023	–
N#C[C@@H]1[C@@H](c2ccc(C#Cc3ccccc3F)cc2)[C@H](CO)N1C(=O)c1cccnc1	0.9522 ± 0.0064	–
CN1C(=O)c2cc(NC(=O)NCc3ccccc3)ccc2OC[C@@H]2O[C@@H](CC(=O)NCC3CCCCC3)CC[C@@H]21	1.05 ± 0.03	–
O=C(C[C@@H]1CC[C@@H]2[C@H](COC[C@H](O)CN2S(=O)(=O)c2ccccc2)O1)Nc1ccccc1	1.07 ± 0.042	–
CCS(=O)(=O)Nc1ccc2c(c1)C(=O)N(C)[C@H]1CC[C@H](CC(=O)NCc3ccccc3F)O[C@H]1CO2	1.12 ± 0.12	–
C/C=C/c1ccc([C@@H]2[C@@H](CO)N[C@@H]2CN(CC(C)C)C(=O)c2ccccn2)cc1	0.996 ± 0.035	–
C[C@H]1CN([C@@H](C)CO)S(=O)(=O)c2ccc(-c3ccncc3)cc2O[C@@H]1CN(C)S(C)(=O)=O	1.042 ± 0.0078	–
CC(C)NC(=O)Nc1ccc2c(c1)C(=O)N(C)[C@H]1CC[C@@H](CC(=O)NCc3ccc(F)cc3)O[C@H]1CO2	0.814 ± 0.17	–
CO[C@@H]1CN(C)C(=O)c2cc(NS(=O)(=O)c3cn(C)cn3)ccc2OC[C@H](C)NC[C@H]1C	1.05 ± 0.025	–
O=C(C[C@@H]1CC[C@@H]2[C@H](COC[C@H](O)CN2C(=O)Nc2cc(Cl)cc(Cl)c2)O1)N1CCOCC1	1.019 ± 0.003	–
C[C@H]1CN([C@@H](C)CO)C(=O)CCCn2nncc2CO[C@H]1CN(C)C(=O)Nc1cccc(Oc2ccccn2)c1	1.03 ± 0.025	–
O=C(C[C@H]1CC[C@H]2[C@@H](COC[C@H](O)CN2C(=O)c2cnccn2)O1)N1CCN(c2ccccc2)CC1	1.01 ± 0.057	–
COc1ccc(C(=O)N2C[C@@H]3[C@H](c4ccccc42)[C@H](CO)N3C(=O)Cc2ccccn2)cc1	1.096 ± 0.0012	–
O=C(C[C@@H]1CC[C@@H]2[C@H](COC[C@@H](O)CN2C(=O)c2ccncc2)O1)NCc1cc(F)cc(F)c1	1.05 ± 0.12	–
CO[C@H](CN(C)C(=O)C1CCOCC1)[C@H](C)CN([C@H](C)CO)S(=O)(=O)c1ccccc1	1.09 ± 0.072	–
N#Cc1cccc(-c2ccc([C@@H]3[C@@H]4CN(Cc5ccccc5)C[C@H]3N4)cc2)c1	1.04 ± 0.08	–
COc1ccc(CN(C)C[C@@H]2OCc3cnnn3CCCC(=O)N([C@@H](C)CO)C[C@H]2C)cc1	1.02 ± 0.061	–
CC(C)NC(=O)N1[C@H](CO)[C@H](c2ccccc2)C12CN(C(=O)c1ccccn1)C2	1.04 ± 0.019	–
O=C1CN(S(=O)(=O)c2cccc(F)c2)C[C@@H]2[C@H](c3ccc(C4=CCCC4)cc3)[C@H](CO)N12	1.01 ± 0.059	–
CS(=O)(=O)Nc1ccc2c(c1)[C@@H]1C[C@@H](CC(=O)NCc3cc(F)ccc3F)O[C@@H](CO)[C@@H]1O2	1.1 ± 0.064	–

SMILES	viability index [1]	viability index [2]
COc1ccc(C(=O)Nc2ccc3c(c2)C(=O)N(C)[C@@H]2CC[C@H](CC(=O)NCC4CC4)O[C@@H]2CO3)cc1	0.984 ± 0.14	–
CCS(=O)(=O)N1CC2(C1)[C@H](c1ccccc1)[C@@H](CO)N2Cc1ccccn1	1.09 ± 0.018	–
O=C(C[C@@H]1C=C[C@H](NS(=O)(=O)c2ccc(F)cc2)[C@@H](CO)O1)N1CCc2ccccc2C1	0.943 ± 0.012	–
CN(C)CC(=O)N[C@H]1C=C[C@H](CC(=O)NCc2ccc(Cl)cc2)O[C@@H]1CO	1.08 ± 0.087	–
O=C(C[C@@H]1CC[C@H]2NC[C@H](O)COC[C@@H]2O1)NCCN1CCCCC1	1.03 ± 0.051	–
COc1ccc(C#Cc2ccc3c(c2)[C@@H]2[C@@H](CCN2C(=O)C2CCOCC2)[C@@H](CO)N3)cc1	1.07 ± 0.05	–
CCCNC(=O)N(C)C[C@@H]1Oc2cc(C#C[C@@H](C)O)ccc2S(=O)(=O)N([C@@H](C)CO)C[C@H]1C	0.981 ± 0.099	–
O=C([C@H]1[C@H](CO)[C@H]2Cn3c(cccc3=O)[C@H]2N1C(=O)CC1CC1)N1CCc2ccccc2C1	1.1 ± 0.061	–
COCC(=O)N1CC[C@@]2(CC1)CN(Cc1cc(F)ccc1F)[C@@H](CO)c1c2c2ccc(OC)cc2n1C	0.936 ± 0.069	–
OC[C@H]1[C@H](c2ccc(C#Cc3ccccc3F)cc2)[C@@H]2CN(CC3CCOCC3)CCCCN12	0.8726 ± 0.0019	–
CCC(=O)N1[C@H](CO)[C@@H]2c3ccccc3N(C(=O)Nc3ccc(Cl)cc3)C[C@@H]21	1.04 ± 0.024	–
COc1ccc2c3c([nH]c2c1)[C@@H](CO)N(C[C@]31CCN(CC2CCCCC2)CC1)C(=O)CN(C)C	–	0.807 ± 0.026
COCC(=O)N1[C@H](C#N)[C@@H](c2ccccc2-c2ccccc2F)[C@@H]1CO	1.15 ± 0.11	–
O=C(C[C@H]1CC[C@H]2[C@@H](COC[C@@H](O)CN2S(=O)(=O)c2ccccc2F)O1)N1CCC(Cc2ccccc2)CC1	0.996 ± 0.1	–
CCCNC(=O)[C@@H]1[C@@H](CO)[C@@H]2Cn3c(ccc(/C=C/c4ccccc4)c3=O)[C@@H]2N1CC1CC1	0.9825 ± 0.0088	–
Cc1noc(C)c1NC(=O)N(C)C[C@@H]1OCc2cnnn2CCCC(=O)N([C@@H](C)CO)C[C@@H]1C	1.16 ± 0.018	–
O=C(C[C@@H]1CC[C@H]2[C@@H](COC[C@@H](O)CN2CC2CCOCC2)O1)NCC1CCCCC1	0.9901 ± 0.0047	–
Cc1noc(C)c1NC(=O)Nc1ccc2c(c1)C(=O)N([C@@H](C)CO)C[C@H](C)[C@@H](CN(C)S(=O)(=O)c1ccc(F)cc1)O2	0.984 ± 0.055	–
CCN(C[C@@H]1[C@@H](c2ccc(-c3cccnc3)cc2)[C@@H](CO)N1C(C)=O)C(C)=O	0.971 ± 0.043	–
CCCNC(=O)N1[C@H](C#N)[C@H](c2ccc(C3=CCCCC3)cc2)[C@@H]1CO	–	0.898 ± 0.025
COc1ccccc1-c1ccccc1[C@@H]1[C@@H](CO)N(C(=O)C2CCOCC2)[C@H]1C#N	1.12 ± 0.052	–
COc1cccc(CNC(=O)[C@@H]2[C@@H](CO)[C@@H]3Cn4c(cccc4=O)[C@H]2N3C(=O)C2CCCC2)c1	1.028 ± 0.0065	–
Cc1ccccc1-c1ccc([C@H]2[C@@H](CO)N3CCCCN(S(=O)(=O)Cc4ccccc4)C[C@@H]23)cc1	0.991 ± 0.063	–
COCC(=O)N1[C@@H](CO)[C@H](c2ccccc2)C12CN(C(=O)c1ccccc1)C2	1.0697 ± 0.00093	–

SMILES	viability index [1]	viability index [2]
COc1ccc2c3c([C@H](CO)N(C[C@]33CCN(Cc4nccs4)CC3)S(C)(=O)=O)n(C)c2c1	1.07 ± 0.015	–
CN1C(=O)c2cc(NS(=O)(=O)c3cccc(F)c3)ccc2OC[C@@H]2O[C@@H](CC(=O)N3CCc4ccccc4C3)CC[C@@H]21	1.07 ± 0.048	–
COCC(=O)Nc1ccc2c(c1)C(=O)N(C)[C@@H]1CC[C@@H](CC(=O)NC3Cc4ccccc4C3)O[C@@H]1CO2	1.08 ± 0.064	–
C[C@H](NC(=O)C[C@H]1CC[C@@H]2[C@H](COC[C@@H](O)CN2C(=O)Nc2cccc(Cl)c2)O1)c1ccccc1	1.02 ± 0.027	–
CC(C)C(=O)Nc1ccc2c(c1)C(=O)N(C)[C@@H]1CC[C@@H](CC(=O)NCCc3ccccc3)O[C@H]1CO2	1.18 ± 0.099	–
C[C@@H]1CCCCO[C@H](CN(C)Cc2ccncc2)[C@H](C)CN([C@H](C)CO)C(=O)c2cc(NC(=O)Cc3ccccc3)ccc2O1	1.12 ± 0.14	–
CCCNC(=O)N1C[C@H](C)[C@H](OC)CN(C)C(=O)c2ccc(NC(=O)CC)cc2OC[C@H]1C	1 ± 0.04	–
N#C[C@@H]1[C@H](c2ccccc2)[C@@H](CO)N1C(=O)CCN1CCCCC1	1.1 ± 0.14	–
C[C@@H]1CN([C@H](C)CO)C(=O)c2c(c3ccccc3n2C)-c2ccccc2CO[C@H]1CN(C)C(=O)Nc1ccccc1C(F)(F)F	0.996 ± 0.036	–
COc1ccc2c3c([nH]c2c1)[C@@H](CO)NC[C@]31CCN(CC1)C(=O)Nc1ccccc1F	1.06 ± 0.057	–
CC[C@@H]1C/C=C\C[C@@H](c2ccc(OC)cc2OC)NC(=O)[C@H](C)CC(=O)N1	0.967 ± 0.14	–
CCS(=O)(=O)N1C[C@@]2(C1)CN(CC1CCOCC1)[C@@H](CO)c1c2c2ccc(OC)cc2n1C	1.07 ± 0.042	–
CC(C)[C@@H]1C/C=C\C[C@@H](c2ccc(F)cc2)NC(=O)[C@H](C)CC(=O)N1	0.9678 ± 0.0059	–
O=C(c1ccc(F)cc1)N1CC(=O)N2[C@H](CO)[C@H](c3ccc(C#CCC4CCCC4)cc3)[C@H]2C1	0.953 ± 0.0018	–
CCC(=O)N1C[C@@H](O)COC[C@@H]2O[C@@H](CC(=O)NCc3ccc(Oc4ccccc4)cc3)CC[C@H]21	1.12 ± 0.052	–
CO[C@@H](C(=O)N(C)C[C@H]1OCc2ccccc2-c2ccccc2C(=O)N([C@H](C)CO)C[C@@H]1C)c1ccccc1	1.04 ± 0.1	–
N#C[C@H]1[C@@H](c2ccccc2-c2ccccc2F)[C@H](CO)N1C(=O)Cc1ccccc1	1.149 ± 0.0052	–
O=C(C[C@H]1CC[C@@H]2[C@H](COC[C@H](O)CN2C(=O)Cc2ccccc2)O1)NC1Cc2ccccc2C1	1.09 ± 0.066	–
CCCNC(=O)C[C@H]1CC[C@@H]2[C@H](COC[C@H](O)CN2C(=O)Nc2ccc(Cl)c(Cl)c2)O1	1.16 ± 0.013	–
COC(=O)C[C@H]1CC[C@@H]2[C@H](COC[C@H](O)CN2S(=O)(=O)c2cn(C)cn2)O1	1.12 ± 0.035	–
O=C(C[C@H]1C[C@@H]2c3cc(NC(=O)C4CCOCC4)ccc3O[C@@H]2[C@H](CO)O1)NCCN1CCCCC1	1.05 ± 0.029	–
COCCNC(=O)[C@H]1[C@H](CO)[C@H]2Cn3c(cccc3=O)[C@@H]1N2Cc1cccc(Cl)c1	1.03 ± 0.079	–
COc1ccc2c3c([nH]c2c1)[C@H](CO)N(C[C@]31CN(Cc2ccccc2)C1)C(=O)c1cccnc1	0.931 ± 0.031	–
O=C(C1CCOCC1)N1CC(=O)N2[C@H](C1)[C@H](c1ccc(C#CCc3ccccc3)cc1)[C@@H]2CO	1.09 ± 0.14	–
